# In PubChem BioAssay AID504332 (National Center for Advancing Translational Sciences (NCATS), 2011):
# In all, about 350,000 compounds went through this assay and about 31,000 (8.9%) were called active. Inconclusive results, whose numbers are uncertain, are shown with a selection of clear calls. The call rests on the fitted dose curve; in most records, active means well fitted inhibition curve with a large enough effect; inconclusive means small, poorly fitted or top-dose-only effect; inactive means no such curve, though single readings can be large or run the other way. Potencies of inconclusive entries are doubtful fits and often do not repeat.
# Target: Histone-lysine N-methyltransferase EHMT2 (Homo sapiens) (UniProt Q96KQ7)
# UniProt Q96KQ7, sequence (Q96KQ7 whole entry, looked up): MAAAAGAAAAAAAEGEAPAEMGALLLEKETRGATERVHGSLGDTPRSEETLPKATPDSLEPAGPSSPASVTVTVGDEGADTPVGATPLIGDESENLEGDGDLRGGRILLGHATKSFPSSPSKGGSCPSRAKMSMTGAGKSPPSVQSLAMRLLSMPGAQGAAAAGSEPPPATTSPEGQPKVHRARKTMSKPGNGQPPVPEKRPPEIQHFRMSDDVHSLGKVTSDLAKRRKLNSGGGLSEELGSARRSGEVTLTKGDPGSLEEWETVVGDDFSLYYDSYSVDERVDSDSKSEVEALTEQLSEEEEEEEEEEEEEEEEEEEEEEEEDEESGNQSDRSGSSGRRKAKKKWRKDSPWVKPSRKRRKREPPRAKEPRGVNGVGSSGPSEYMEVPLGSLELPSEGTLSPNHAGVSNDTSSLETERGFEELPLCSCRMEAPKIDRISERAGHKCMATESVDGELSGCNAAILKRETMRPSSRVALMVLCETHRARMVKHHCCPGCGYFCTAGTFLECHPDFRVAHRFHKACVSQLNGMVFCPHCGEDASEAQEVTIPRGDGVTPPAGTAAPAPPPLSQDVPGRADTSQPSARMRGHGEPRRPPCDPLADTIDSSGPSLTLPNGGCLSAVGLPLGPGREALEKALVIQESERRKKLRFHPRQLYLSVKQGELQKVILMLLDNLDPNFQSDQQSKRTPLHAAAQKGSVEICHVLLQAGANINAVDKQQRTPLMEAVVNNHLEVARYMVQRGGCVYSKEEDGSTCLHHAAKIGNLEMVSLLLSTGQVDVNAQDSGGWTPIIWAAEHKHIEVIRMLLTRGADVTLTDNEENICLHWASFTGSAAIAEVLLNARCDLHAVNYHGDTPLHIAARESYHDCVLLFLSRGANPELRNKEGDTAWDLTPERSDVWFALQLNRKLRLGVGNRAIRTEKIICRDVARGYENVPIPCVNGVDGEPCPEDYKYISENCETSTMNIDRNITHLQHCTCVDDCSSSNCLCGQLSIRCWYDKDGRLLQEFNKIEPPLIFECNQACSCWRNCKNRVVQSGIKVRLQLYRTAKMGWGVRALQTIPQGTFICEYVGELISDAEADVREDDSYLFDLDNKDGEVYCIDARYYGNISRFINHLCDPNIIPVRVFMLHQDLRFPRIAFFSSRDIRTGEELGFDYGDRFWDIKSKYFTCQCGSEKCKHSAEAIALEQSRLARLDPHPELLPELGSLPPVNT
# Experiment: qHTS Assay for Inhibitors of Histone Lysine Methyltransferase G9a; further: nearly all actives have a fitted effect of over 75% in size
# Conditions: G9a H3K9 monomethylation, AlphaScreen, 2 h; activity, negative = inhibition: at 59 µM (top of the series) unless noted
# How it was run: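 Quantitative HTS format: methyltransferase activity on a biotin-tagged H3K9 peptide is measured by AlphaScreen, using a rabbit anti-monomethyl-H3K9 antibody with streptavidin donor and anti-IgG acceptor beads. Final levels are 20 nM enzyme, 500 nM peptide, 20 uM SAM; 2 h RT.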
# On the % scale 0 is the no-effect control and ±100 the full control effect; potency means the concentration at half of the fitted maximal effect; tags describe the fitted curve by direction and shape.
SMILES,Potency,"activity, negative = inhibition"
Cc1cc(OCCN2CCCCCC2)ccc1[N+](=O)[O-],active: 25.1 µM,
COc1ccc(OC)c(C(c2nnnn2CC2CCCO2)N2CCN(C)CC2)c1 (stereo unspecified),"inconclusive: 1.12 µM [inhibitor, full curve, poor fit]",
O=C(O)c1ccc(-c2ccco2)n1Cc1ccccc1,"inconclusive: 89.1 µM [inhibitor, single point]",
Cc1ccc(-n2c(O)c(C=Nc3ccccc3-c3n[nH]c(=S)[nH]c3=O)c3ccccc3c2=O)cc1C,"inconclusive: 11.2 µM [inhibitor, full curve]",
COCc1ccc(C(=O)N2CCc3c([nH]c4ccccc34)C2c2ccccn2)s1 (stereo unspecified),active: 31.6 µM,
CCn1cc([N+](=O)[O-])c(C(=O)N2N=C(c3ccc(Cl)c(Cl)c3)CC2c2ccccc2O)n1 (stereo unspecified),"inconclusive: 35.5 µM [inhibitor, partial curve, poor fit]",
C=CCn1c(-c2cccn(Cc3ccc(Cl)cc3Cl)c2=O)n[nH]c1=S,active: 2.82 µM,
Oc1cc2c(cc1CN1CCc3ccccc3C1)OCO2,active: 20 µM,
CC(C)[C@@H]1C=C(C(=O)O)O[C@H](OCCCCO)C1,"inconclusive: 4.47 µM [inhibitor, single point]",
Cc1ccc(NC(=O)c2ccco2)c(NC(=O)CN2C(=O)c3ccccc3C2=O)c1,"inconclusive: 89.1 µM [inhibitor, single point]",
CSc1ccc(C(=O)N2CCC(CCC(=O)NC3CC3)CC2)cc1,,inactive: 13.4% [at 0.0925 µM]
O=C(CN1CCN(C(C(=O)Nc2ccc(F)cc2)c2ccccc2)CC1)NC1CC1 (stereo unspecified),,inactive: 31.2% [at 12.7 µM]
CCCC1=[N+](CC(=O)c2ccccc2)CCn2cccc21,inactive,
COc1cc(/C=C(/NC(=O)c2ccccc2)C(=O)Nc2ccc(O)cc2)c([N+](=O)[O-])cc1OC,"inconclusive: 89.1 µM [inhibitor, single point]",
COc1ccc(-c2cc(C(=O)N3CCN(C(c4ccccc4)c4ccccc4)CC3)no2)cc1OC,"inconclusive: 50.1 µM [inhibitor, partial curve, poor fit]",
O=C(/C=C/c1ccccc1Cl)Nc1ccc(S(=O)(=O)Nc2ncccn2)cc1,"inconclusive: 79.4 µM [inhibitor, single point]",
COc1ccc(CCN2CC(C(=O)N(C)Cc3ccc4nsnc4c3)CCC2=O)cc1 (stereo unspecified),inactive,
CCCC(C(=O)NC1CCCC1)N(Cc1ccc2c(c1)OCO2)C(=O)c1snc(C(N)=O)c1N (stereo unspecified),,inactive: -1.56% [at 12.7 µM]
O=C(Nc1ccc(S(=O)(=O)NCc2ccco2)cc1)c1ccc(F)cc1,"inconclusive: 79.4 µM [inhibitor, single point]",
O=C(COC(=O)c1ccc2c(c1)C(=O)N(Cc1ccncc1)C2=O)Nc1cccc2ccccc12,"inconclusive: 44.7 µM [inhibitor, partial curve]",
COC(=O)C1=C(CS(=O)(=O)c2ccc(C)cc2C)NC(=O)NC1c1ccc(C)cc1 (stereo unspecified),inactive,
Cc1ccc(-c2cc(C(=O)N3CCOCC3)c3cc(C)ccc3n2)cc1,inactive,

SMILES,Potency,"activity, negative = inhibition"
Cc1cccc(-c2c3c(=O)n(C)c(=O)n(C)c3cn2C(C)(C)C)c1,"inconclusive: 79.4 µM [inhibitor, single point]",
COC(=O)C1=C(C)OC(N)=C(C#N)C1c1ccccc1F (stereo unspecified),inactive,
COC(=O)c1ccc(NC(=O)c2c(NCc3cccc(F)c3)sc3c2CCCC3)cc1,"inconclusive: 1.12 µM [inhibitor, full curve]",
O=C(CCNC(=O)c1ccc([N+](=O)[O-])cc1)Nc1ccc(Cl)c(S(=O)(=O)N2CCOCC2)c1,"inconclusive: 3.16 µM [inhibitor, single point]",
COc1ccc(N2C(C(C)=O)=NN(c3ccccc3)C2c2cccs2)cc1 (stereo unspecified),"inconclusive: 89.1 µM [inhibitor, single point]",
C=CCNC(=O)C1CCCN(S(=O)(=O)c2ccc(-n3cnnn3)cc2)C1 (stereo unspecified),inactive,
O=C(Nc1nc2ccccc2[nH]1)c1cccc([N+](=O)[O-])c1,inactive,
COCC(=O)N1CCC2(CC1)CCN(c1ccc(-c3ccccc3)cc1)CC2,,inactive: -21% [at 12.7 µM]
CCOC(=O)C(=O)C1=CN(Cc2ccccc2)C=C(C#N)C1,"inconclusive: 89.1 µM [inhibitor, single point]",
Cc1ccc2[nH]c(=O)c(C(c3nnnn3C3CCCC3)N3CCCc4ccccc43)cc2c1 (stereo unspecified),"inconclusive: 25.1 µM [inhibitor, single point]",
Cc1ccc(OCCCC(=O)Nc2ccc(N3CCOCC3)cc2)cc1,"inconclusive: 8.91 µM [inhibitor, full curve, poor fit]",
CCOC(=O)c1sc(-c2cccc([N+](=O)[O-])c2)cc1N,"inconclusive: 31.6 µM [inhibitor, partial curve, poor fit]",
Cc1c(NC(=O)COc2ccc3ccc(=O)oc3c2)c(=O)n(-c2ccccc2)n1C,"inconclusive: 44.7 µM [inhibitor, partial curve, poor fit]",
CC(C)(C)C(=O)[C@@H]1[C@@H]2C(=O)N(c3ccc4c(c3)OCCO4)C(=O)[C@@H]2C2c3ccccc3C=CN21 (stereo partly specified),active: 8.91 µM,
Nc1c(N(CCC2=CCCCC2)C(=O)c2ccc([N+](=O)[O-])o2)c(=O)[nH]c(=O)n1Cc1ccccc1,"inconclusive: 50.1 µM [inhibitor, partial curve, poor fit]",
Cc1cccc(N2CC(C(=O)Nc3nnc(SCCC4OCCO4)s3)CC2=O)c1 (stereo unspecified),active: 22.4 µM,
NC(=O)n1c(O)c(C(=O)c2cccs2)c2cc(Cl)ccc21,"inconclusive: 2.51 µM [inhibitor, partial curve, poor fit]",
Cc1ccc(-c2nc(CS(=O)CC(=O)NCCN3CCCCCC3)c(C)o2)cc1 (stereo unspecified),"inconclusive: 89.1 µM [inhibitor, single point]",
COC(=O)CN1C(=S)N(C)C(=O)/C1=C/c1cccs1,inactive,
Cc1cccc(NS(=O)(=O)c2ccc(-c3cnc(C4CC4)o3)cc2)c1C,"inconclusive: 15.8 µM [inhibitor, partial curve, poor fit]",
O=C(Nc1ccccn1)c1ccc2c(=O)n3c(nc2c1)CCCCC3,"inconclusive: 1.26 µM [inhibitor, full curve, poor fit]",
CC(C)OC(=S)N/C(=N\S(=O)(=O)c1ccccc1)c1ccccc1,active: 11.2 µM,

SMILES,Potency,"activity, negative = inhibition"
CC(=O)NC(=O)COC(=O)c1ccc2ncsc2c1,active: 56.2 µM,
CCN(CC)CCNC(=O)COc1ccc(Cl)cc1Cl,,inconclusive: -54.7% [inhibitor]
COc1ccc(OC)c(CCNC(=O)Cn2cccc2C(=O)c2ccccc2C)c1,"inconclusive: 1 µM [inhibitor, partial curve, poor fit]",
COc1cc(OC)cc(C(=O)NNC(=O)C(=O)Nc2cc(OC)c(Cl)cc2OC)c1,inactive,
Cc1ccc(NC(=O)C2C3C=CC4(O3)C2C(=O)N(CCCN2CCCC(C)C2)C4C(=O)NC2CCCCC2)cc1 (stereo unspecified),"inconclusive: 89.1 µM [inhibitor, single point]",
CCCN(c1ccccc1F)S(=O)(=O)c1ccc2c(c1)C(C)(C)C(=O)N2C,inactive,
CN(C)CCNC(=O)/C(=C/c1ccc(-c2ccc(Cl)cc2)o1)NC(=O)c1ccccc1,"inconclusive: 35.5 µM [inhibitor, partial curve, poor fit]",
COc1ccccc1NC(=O)CCCC(=O)OC(C)C(=O)c1ccccc1 (stereo unspecified),"inconclusive: 79.4 µM [inhibitor, single point]",
Cc1ccc(-n2[nH]c(=O)c3cccnc32)cc1,"inconclusive: 79.4 µM [inhibitor, single point]",
CCOC(=O)C1(Cc2ccccc2Cl)CCN(Cc2csc(C(C)=O)c2)CC1,,inconclusive: -53.2% [inhibitor] [at 0.501 µM]
NC(=O)c1ccc(Nc2ccc([N+](=O)[O-])cc2[N+](=O)[O-])cc1,"inconclusive: 50.1 µM [inhibitor, partial curve, poor fit]",
C/C(=N\NC(=S)NCc1ccccc1)c1ccc2ccccc2c1,inactive,
COC(=O)CSC1=C(C#N)C(c2sccc2C)CC(=O)N1 (stereo unspecified),"inconclusive: 22.4 µM [inhibitor, single point]",
O=C(NCc1ccccc1)c1ccc(C(=O)N(C2CCCCC2)C2CCCCC2)cc1,"inconclusive: 89.1 µM [inhibitor, single point]",
CN(CCO)c1ccc([N+](=O)[O-])cc1C(=O)O,"inconclusive: 11.2 µM [inhibitor, partial curve, poor fit]",
CCN(CC)NC(=O)Nc1ccccc1,inactive,
CCOc1c(Br)cc(C2C=C(C(=O)O)Nc3ncnn32)cc1OC (stereo unspecified),"inconclusive: 25.1 µM [inhibitor, partial curve]",
CC(C)(C)N=C1NN=C(c2cc3ccccc3o2)CS1,active: 39.8 µM,
CCCCn1c(SCC(=O)c2ccc(OCC)cc2)nc2cc(S(N)(=O)=O)ccc21,"inconclusive: 25.1 µM [inhibitor, partial curve, poor fit]",
O=C(Cc1cc(=O)[nH]c(=O)[nH]1)NCCN1CCOCC1,"inconclusive: 39.8 µM [inhibitor, single point]",
COCCn1nnnc1C(c1ccccn1)N1CCN(c2cc(C)ccc2C)CC1 (stereo unspecified),"inconclusive: 3.55 µM [inhibitor, partial curve, poor fit]",
CCOc1ccccc1NC(=O)c1cc(-c2ccncc2)nc2c(Cl)cccc12,,inconclusive: -53.2% [inhibitor]
